In PubChem BioAssay (NCATS):
Values joined by “and” are separate entries in the source; they are usually repeats but may differ in a detail not shown here. Equal entries are not always repeated. Inconclusive means that the source gave no clear call. Such entries were picked first, then a sample of the others. Potencies of inconclusive entries are doubtful fits and often do not repeat. Active and inactive are the calls of the source. Calls follow the shape of the dose curve; as a rule, active = well fitted inhibition curve with a large enough effect; inconclusive = small, poorly fitted or top-dose-only effect; inactive = flat fitted curve, though single readings scatter.

Assay: P-glycoprotein substrates identified in KB-8-5-11 adenocarcinoma cell line, qHTS therapeutic library screen (AID 1346987); also: nearly all actives have a fitted effect of over 65% in size
Conditions: KB-8-5-11 (P-gp overexpressing) viability, CellTiter-Glo, 72 h; series mostly up to 44.5 µM
In short: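 KB-8-5-11: colchicine-selected sub-line of KB-3-1 over-expressing P-gp; assay medium lacked colchicine. 72 h drug exposure at 37 degree C, CellTiter-Glo.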
Potency is read from the fitted curve at half-maximal effect; tags tell the direction and shape of the fitted curve.

Row | Compound | Potency
1 | CC(CN1c2ccccc2Sc2ccccc21)N(C)C (stereo unspecified) | inconclusive: 20.6 µM [inhibitor, single point]
2 | CC(CN(C)C)CN1c2ccccc2CCc2ccccc21 (stereo unspecified) | inconclusive: 8.8 µM [inhibitor, single point]
3 | O[C@@H](c1cc(C(F)(F)F)nc2c(C(F)(F)F)cccc12)[C@H]1CCCCN1 | inconclusive: 20.6 µM [inhibitor, single point]
4 | CC[C@]1(O)C[C@@H]2CN(CCc3c([nH]c4ccccc34)[C@@](C(=O)OC)(c3cc4c(cc3OC)N(C)[C@H]3[C@@](O)(C(=O)OC)[C@H](OC(C)=O)[C@]5(CC)C=CCN6CC[C@]43[C@@H]65)C2)C1 | active: 5.8 µM and active: 5.17 µM and active: 1.16 µM
5 | CCCCCCCCNC(C)C(O)c1ccc(SC(C)C)cc1 (stereo unspecified) | active: 11.6 µM
6 | O=C1[C@H]2CCCC[C@H]2C(=O)N1CCCCN1CCN(c2nsc3ccccc23)CC1 | inconclusive: 7.31 µM [inhibitor, partial curve]
7 | CNCCC(Oc1ccc(C(F)(F)F)cc1)c1ccccc1 (stereo unspecified) | inconclusive: 29.1 µM [inhibitor, single point]
8 | CCC1=C[C@@H]2CN(C1)Cc1c([nH]c3ccccc13)[C@@](C(=O)OC)(c1cc3c(cc1OC)N(C)[C@@H]1[C@@](O)(C(=O)OC)[C@H](OC(C)=O)[C@]4(CC)C=CCN5CC[C@]31[C@@H]54)C2 | inconclusive: 33.2 µM [inhibitor, single point]
9 | CCOC(=O)C1=C(C)NC(C)=C(C(=O)OC)C1c1cccc([N+](=O)[O-])c1 (stereo unspecified) | inconclusive: 8.2 µM [inhibitor, partial curve]
10 | OCCN1CCN(CCCN2c3ccccc3Sc3ccc(Cl)cc32)CC1 | inconclusive: 6.99 µM [inhibitor, single point]
11 | CCCCC(CC)CN=C(N)NC(N)=NCCCCCCN=C(N)NC(N)=NCC(CC)CCCC (stereo unspecified) | inconclusive: 23.1 µM [inhibitor, single point]
12 | NC(=O)c1ncn([C@@H]2O[C@H](CO)[C@@H](O)[C@H]2O)c1O | inactive
13 | COc1cc2c(cc1OC)-c1cc(=Nc3c(C)cc(C)cc3C)n(C)c(=O)n1CC2 | active: 25.9 µM
14 | O=C(CCCN1CCC(O)(c2cccc(C(F)(F)F)c2)CC1)c1ccc(F)cc1 | inconclusive: 10.3 µM [inhibitor, partial curve]
15 | NC(=NCCCCCCN=C(N)/N=C(\N)Nc1ccc(Cl)cc1)/N=C(\N)Nc1ccc(Cl)cc1 | inconclusive: 29.1 µM [inhibitor, single point] and inconclusive: 18.4 µM [inhibitor, single point]
16 | COc1cc(C(=O)OCCCN2CCCN(CCCOC(=O)c3cc(OC)c(OC)c(OC)c3)CC2)cc(OC)c1OC | inconclusive: 2.31 µM [inhibitor, full curve]
17 | C[C@@H]1C[C@H]2[C@@H]3CCC4=CC(=O)C=C[C@]4(C)[C@@]3(F)[C@@H](O)C[C@]2(C)[C@H]1C(=O)CO | inconclusive: 25.9 µM [inhibitor, single point]
18 | Oc1c(I)cc(Cl)c2cccnc12 | inconclusive: 32.6 µM [inhibitor, single point]
19 | Cc1c(O)cccc1C(=O)N[C@@H](CSc1ccccc1)[C@H](O)CN1C[C@H]2CCCC[C@H]2C[C@H]1C(=O)NC(C)(C)C | inconclusive: 23.1 µM [inhibitor, single point]
20 | COc1cc2c(cc1OC)[C@@H]1CC(=O)[C@@H](CC(C)C)CN1CC2 | inconclusive: 11.6 µM [inhibitor, partial curve]
21 | CN(C)CCCN1c2ccccc2Sc2ccc(Cl)cc21 | inconclusive: 18.4 µM [inhibitor, single point]
22 | CN1CCN(CCCN2c3ccccc3Sc3ccc(S(=O)(=O)N(C)C)cc32)CC1 | inconclusive: 6.99 µM [inhibitor, partial curve, poor fit]
23 | COc1ccc(CN2CCN(C(c3ccc(F)cc3)c3ccc(F)cc3)CC2)c(OC)c1OC | active: 23.1 µM
24 | CC12CC3CC(C)(C1)CC(N)(C3)C2 | inconclusive: 20.6 µM [inhibitor, single point]
25 | CCCCOc1cc(C(=O)NCCN(CC)CC)c2ccccc2n1 | inactive
26 | CC/C(=C(\c1ccccc1)c1ccc(OCCN(C)C)cc1)c1ccccc1 | inconclusive: 23.1 µM [inhibitor, single point]
